These are yes or no findings as the source states them, for the method shown. Binding seen in cells or lysates may run through a third protein. Some results given as binding are weak or reduced against the parent protein; the word gives no strength. Where a sequence is shown, tags or fusion partners need not be part of it.
Assays:
Assay in all cases: pull-down; 30 µg GST-fused INF2 fragments immobilized on glutathione-Sepharose 4B beads, incubated 3 h at 4 °C with lysates of HEK293T cells expressing GFP fusions; 20 mM Tris-HCl pH 7.8, 150 mM NaCl, 1% Nonidet P-40, 1% glycerol, 5 mM CaCl2; immunoblotting; only the target purified
[1] = biological target: GST fused to the 2-340 INF2 fragment (human) (UniProt Q27J81)
[2] = biological target: GST fused to the 2-21 INF2 fragment (human) (UniProt Q27J81)
[3] = biological target: GST fused to the 19-340 INF2 fragment (human) (UniProt Q27J81)
[4] = biological target: GST fused to the 2-340 INF2 fragment with the triple W11L14L18A mutation (human) (UniProt Q27J81)

Sequences of proteins named here, by UniProt entry; tags and fusion partners are left off. A change or cut given only in a name is not applied to a line headed by its entry. A line that says so, or that is headed by a name, gives the form on record, which may keep a tag or linker. Residues count along the entry.
GST fused to the 2-340 INF2 fragment (Q27J81, residues 2-340): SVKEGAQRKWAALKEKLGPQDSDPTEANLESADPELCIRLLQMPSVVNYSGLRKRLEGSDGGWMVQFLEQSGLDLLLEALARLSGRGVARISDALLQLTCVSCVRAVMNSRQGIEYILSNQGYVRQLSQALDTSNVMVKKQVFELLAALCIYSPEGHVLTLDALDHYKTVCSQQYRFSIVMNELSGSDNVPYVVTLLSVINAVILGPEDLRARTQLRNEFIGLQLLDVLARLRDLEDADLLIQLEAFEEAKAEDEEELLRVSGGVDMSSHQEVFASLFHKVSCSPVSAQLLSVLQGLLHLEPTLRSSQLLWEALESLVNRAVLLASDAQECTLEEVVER
GST fused to the 2-21 INF2 fragment (Q27J81, residues 2-21): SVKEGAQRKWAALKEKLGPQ
GST fused to the 19-340 INF2 fragment (Q27J81, residues 19-340): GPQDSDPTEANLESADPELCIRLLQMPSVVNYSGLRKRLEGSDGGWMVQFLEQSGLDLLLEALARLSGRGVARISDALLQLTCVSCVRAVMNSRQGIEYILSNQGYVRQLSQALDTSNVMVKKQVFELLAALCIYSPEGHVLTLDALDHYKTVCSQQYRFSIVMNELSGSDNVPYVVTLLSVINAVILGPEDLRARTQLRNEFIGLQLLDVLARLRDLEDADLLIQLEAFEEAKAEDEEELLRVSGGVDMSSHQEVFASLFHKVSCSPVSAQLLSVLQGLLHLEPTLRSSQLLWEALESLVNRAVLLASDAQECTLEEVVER
GST fused to the 2-340 INF2 fragment with the triple W11L14L18A mutation (Q27J81, form named): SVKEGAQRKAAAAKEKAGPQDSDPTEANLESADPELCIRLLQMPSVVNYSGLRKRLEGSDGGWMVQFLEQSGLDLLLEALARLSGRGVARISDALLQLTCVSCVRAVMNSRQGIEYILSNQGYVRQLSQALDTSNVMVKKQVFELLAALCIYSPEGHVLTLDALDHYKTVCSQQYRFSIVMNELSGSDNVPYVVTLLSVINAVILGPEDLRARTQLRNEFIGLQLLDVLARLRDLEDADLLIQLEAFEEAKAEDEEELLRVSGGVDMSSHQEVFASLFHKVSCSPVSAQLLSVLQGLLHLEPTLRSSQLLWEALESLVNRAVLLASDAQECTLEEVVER

B1: GFP fused to centrin-3 (protein, UniProt O15182 1-167)
chain: MSLALRSELVVDKTKRKKRRELSEEQKQEIKDAFELFDTDKDEAIDYHELKVAMRALGFDVKKADVLKILKDYDREATGKITFEDFNEVVTDWILERDPHEEILKAFKLFDDDDSGKISLRNLRRVARELGENMSDEELRAMIEEFDKDGDGEINQEEFIAIMTGDI
binding [1]: binds | binding [2]: binds | binding [3]: no binding | binding [4]: no binding

Reference: PMC11335204
